# According to the RNAGym collection of RNA variant scans (doi:10.7554/elife.90254):
# Read counts are not given, so values of variants with three or more changes are uncertain.
# B1: LINE1-mini (parent)
# chain: GGCAGAGCUCAACACAGCGUGGCAAAGUGGCUGUGGCUAGACUGCC
# Variants of: B1
# Assay: self-cleavage, relative activity (ratio to wild type); higher = more cleavage; in vitro, sequencing; the parent is a self-cleaving ribozyme
row,Variant,self-cleavage
1,GGAAGAGCUCAAUACAGCGUGGCAAAGUGGAUGUGUCUAGACUGCC [C3A C13U C31A G36U],0.33
2,GGAAGAGCUAAACACAGCGUGGAAAAGUGGCUGAGGCUAGGAUGCC [C3A C10A C23A U34A A41G C42A],0.02
3,GGAAGAGCUCAACACAGCGUGGCACAAUAGCUGUGGCUAGACUGCC [C3A A25C G27A G29A],0.31
4,GGAAGAGCUUAACAAGGCGUGGCUAAGUGGCUGUGGCUAGACUGCC [C3A C10U C15A A16G A24U],0.09
5,GGAAGAGUUCGACACAGCGUGGCAAAGUGGCAGUGGCUAGACUGCC [C3A C8U A11G U32A],0.02
6,GGAAGAGAUCAACACAGCGUGGCAAAGUGGCUGUGGAUAGACUGCC [C3A C8A C37A],0.29
7,GGAAGAGGUCAACGCAGCGUGGCAAAGUGGCUGUGGCUAGACUGCC [C3A C8G A14G],1.51
8,GGAAGAGCUCAACACAGCGUGGCAACGUGGCUGUGGCUAGUCUGCA [C3A A26C A41U C46A],0.44
9,GGAAGAGCUGAACACAGCGGGGCAAAGUGGCUGUGGCUACACUGCC [C3A C10G U20G G40C],0.01
10,GGAAGAGCUCAAAACAGCGUGGAAAAGUGGCUGUGGCUAAACUGCC [C3A C13A C23A G40A],0.21
11,GGAAGAGCUAAAGACAGCGUGGCAAAGUGCCUGUGGCUAGACUGCC [C3A C10A C13G G30C],0.04
12,GGAAGAGCUCAAUACUGCGUGGCAAAGUGGCUGUGGCUAGACUGCC [C3A C13U A16U],0.07
13,GGAAGAGUUCAAGACAGCGUGGCAAAGUGGCUGUGGCUAGACUGCC [C3A C8U C13G],0.85
14,GGAAGAGCUGAACACAGCGGGGCAAAGUGGCUGUGGCUAGACUUCC [C3A C10G U20G G44U],0.06
15,GGAAGAGCUCAAGACAGCGUGGCAAAGUGGCUUUGGCUAGACUGCC [C3A C13G G33U],0.36
16,GGAAGAGCUCAAGACAGCGUGGCAGAGUUGCGGUGGCUAGACUGCC [C3A C13G A25G G29U U32G],0.05
17,GGAAGAGCUCAACACAGCGUGGCUAAGUCGCUGUGCCGAGAAUGCC [C3A A24U G29C G36C U38G C42A],0.02
18,GGAAGAGCUCAAAGCAGCGUGGCAGAGUGGCUGUGGCUAGACUGCC [C3A C13A A14G A25G],0.5
19,GGAAGAGCUCAAUACAGCAGGGCAAAGUGGCUGUGGCUAGACUGCC [C3A C13U G19A U20G],0.81

row,Variant,self-cleavage
1,GGAAGAGCUAAACACAGCGUGGCAAAGUGGCUGUGGCUAGACUCCC [C3A C10A G44C],0.07
2,GGAAGAGCUUUACACAGCGUGGCAAGGUGGCUGUAGCUAGACUGCC [C3A C10U A11U A26G G35A],0.03
3,GGAAGAGGUCAACACAGCGUGGCAAAGUGGCUGCGGCUAGACUGCC [C3A C8G U34C],0.06
4,GGAAGAGAUCAACACCGCGUGGCAAAGUGGCUGUGGCUUGACUGCC [C3A C8A A16C A39U],0.53
5,GGAAGAGGUCAACACAGCGUGGCAACGUGGCUGUGGCUAUACUGUC [C3A C8G A26C G40U C45U],0.02
6,GGAAGAGCUGAAAACAGCGUGGCAAAGUGGCUGUGGCUAGACUGCC [C3A C10G C13A],0.06
7,GGAAGAGCUCAACACAGCGUGGCAAAGUGGCUGUGGCUAGCCUGGC [C3A A41C C45G],0.06
8,GGAAGAGCUCAAUACAGCGAGGCAAAGUGGCUGUCGCUAGACUGCC [C3A C13U U20A G35C],0.07
9,GGAAGAGCUAAACUCAACUUGGCAAAGUGGCUGUGGCUAGACUGCC [C3A C10A A14U G17A G19U],0.03
10,GGAAGAGCUCAACACAGCGUGGCAACGUGGGUGAGGCUAGACUGCC [C3A A26C C31G U34A],0.02
11,GGAAGAGUCCAACACAGCGUGGCAAAGUCGCUGUGGCUAGACUGCC [C3A C8U U9C G29C],0.05
12,GGAAGAGCUCAACACAGCGUGGCAAUGUGGCUGUGGCUAAACUGCC [C3A A26U G40A],0.15
13,GGAAGAGUUCAACACAAAGUGGCAAAGUGGCUCAGGCUAGACUGCC [C3A C8U G17A C18A G33C U34A],0.1
14,GGAAGAGUUCAACACAGCGUGGCAAAGUGGCUGUGGCCAGACUGCU [C3A C8U U38C C46U],1.57
15,GGAAGAGCUGCACACAGCGUGGCAAACUGGCUGUGGCUAGACUGCC [C3A C10G A11C G27C],0.03
16,GGAAGAGCUAAACACAGGGUGGCAAAGUGGCUGUGGCUAGACUGCC [C3A C10A C18G],0.05
17,GGAAGAGCUAAACACAGAGUGGCAAAGUGGCUGUGGCUAGACUGCC [C3A C10A C18A],0.08
18,GGAAGAGGUCAACACAGCGUGGCACAGUGGCUGAGGCUAGACUGCC [C3A C8G A25C U34A],0.02
19,GGAAGAGCUCAAAACAGCCUUGCAAAGGGGGUGUGGCUACACUGCC [C3A C13A G19C G21U U28G C31G G40C],0.07

row,Variant,self-cleavage
1,GGAAGAGUUCAACACAGCGUGGUAAAGUCGCUGUGGCUAGACUGCC [C3A C8U C23U G29C],2.62
2,GGAAGAGCUCAAUACAGCGUGGCAAAGUGGCUGUGGCUAGAGUGCC [C3A C13U C42G],0.11
3,GGAAGAGAUCAACAGAGCGUGGCAAAGUGGCUGUAGCUAGACUGCC [C3A C8A C15G G35A],0.35
4,GGAAGAGAGCAACACAGCGUGGCAAUGUGACUGUGGCUAGGCUGCC [C3A C8A U9G A26U G30A A41G],0.46
5,GGAAGAGCUCAAGACAGCGUGGGAAAGUGGUUGUGGCUAGACUGCC [C3A C13G C23G C31U],0.18
6,GGAAGAGCUCAACACAGCGUGGCAUAGUGGCUGGGGCUAGACUGCC [C3A A25U U34G],0.17
7,GGAAGAGCUCAAUCCAGCGUGCCAAAGUGACUCUGGUUAGACUGCC [C3A C13U A14C G22C G30A G33C C37U],0.19
8,GGAAGAGAUCAACACAGCGUGGCAAGGUGGCGGUGGCUGGACUGCC [C3A C8A A26G U32G A39G],0.36
9,GGAAGAGUUCAACACAGCGUGCCAAAGUGGCUGUGGCUAGACUUCC [C3A C8U G22C G44U],0.92
10,GGAAGAGGUCAACACAGCGUGGCAAAGUGGCUGUGACUAGACUGCC [C3A C8G G36A],0.03
11,GGAAGAGAUCGACACAGCGUGGCAAAAUGGCUGUGGCUAGACUGCC [C3A C8A A11G G27A],0.05
12,GGAAGAGGUCAGCGCAGCGUGGCAAAGUGGCUGUGGCUAGACUGCC [C3A C8G A12G A14G],0.04
13,GGAAGAGCUAAACACAGCGUGGCGAAGUGGCUGUGGCUAGAUUGCC [C3A C10A A24G C42U],0.02
14,GGAAGAGCUGAACACAGCGUGGCAAAGUGGCUGUGGCUAGAAUGCC [C3A C10G C42A],0
15,GGAAGAGCUCAAGACAUUGUGGCAAAGUGGCUGUGGCUCGACUGCC [C3A C13G G17U C18U A39C],0.01
16,GGAAGAGCUUAACCCAGCGUUGCAAAGGGGCUCUGGCUAGACUGGC [C3A C10U A14C G21U U28G G33C C45G],0
17,GGAAGAGCUCAACACAGCGUGGCAUAGUGGCUGUUGCUGGACAGCC [C3A A25U G35U A39G U43A],0.27
18,GGAAGAGCUCAACACAGCGUGGCAUAGUGGCUGUGUCUAGACUGCC [C3A A25U G36U],0.45
